Laboratory results published in the supplement of paper PMC7125110.
± gives the standard error. Variants at the background level are over-represented here.

B1: glmS ribozyme (parent)
chain: AUAAAAGCGCCAGAACUACAGAAAUGUAGUUGACGAGGAGGAGGUUUAUCGAAUUUUCGGCGGAUGCCUCCAAA

Assays:
Conditions in all cases: with glucosamine-6-phosphate
glucosamine-6-phosphate [1] = variants of: B1; assay: self-cleavage kobs at 640 uM GlcN6P; higher = faster cleavage; RNA array
How it was run: (§1)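 Sequenced MiSeq chips were the platform: E. coli RNA polymerase transcribed barcoded ribozyme variants on them in situ, and a hybridised Cy3 probe tracked these at 37 °C. After glucosamine-6-phosphate (40 μM to 10 mM) in HEPES/KCl/Mg(OAc)2 buffer was flowed in, tiles were imaged over ~14 h. Signals normalised to baseline and to non-cleaving reference variants were reduced to per-tile medians and fit to one- or two-exponential decays to obtain kobs. kcat and KM were derived through weighted Michaelis–Menten fits across concentrations.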

glucosamine-6-phosphate [2] = variants of: B1; assay: self-cleavage kobs at 2500 uM GlcN6P; higher = faster cleavage; RNA array
How it was run: as §1

glucosamine-6-phosphate [3] = variants of: B1; assay: self-cleavage kobs at 160 uM GlcN6P; higher = faster cleavage; RNA array
How it was run: as §1

glucosamine-6-phosphate [4] = variants of: B1; assay: self-cleavage kobs at 10000 uM GlcN6P; higher = faster cleavage; RNA array
How it was run: as §1

Variant | self-cleavage kobs at 640 uM GlcN6P (glucosamine-6-phosphate [1]) | self-cleavage kobs at 2500 uM GlcN6P (glucosamine-6-phosphate [2]) | self-cleavage kobs at 160 uM GlcN6P (glucosamine-6-phosphate [3]) | self-cleavage kobs at 10000 uM GlcN6P (glucosamine-6-phosphate [4])
C10U A53C G66A | < 1e-05 s⁻¹ | – | – | –
G9C G37U A64C | < 1e-05 s⁻¹ | < 1e-05 s⁻¹ | – | –
C8U G9C C16G G60A | < 1e-05 s⁻¹ | – | – | –
C10U G32A A33C U54C G63U | < 1e-05 s⁻¹ | – | – | –
C11A C50G C61A | 0.000272 ± 7.9e-05 s⁻¹ | 0.000188 ± 3.7e-05 s⁻¹ | – | –
C11U G29A A33C | < 1e-05 s⁻¹ | < 1e-05 s⁻¹ | – | –
A12U G59U | < 1e-05 s⁻¹ | – | – | –
C8G G40U A52U | < 1e-05 s⁻¹ | – | < 1e-05 s⁻¹ | –
C10U A12U G35A U45C U54G U57C A64G | < 1e-05 s⁻¹ | < 1e-05 s⁻¹ | < 1e-05 s⁻¹ | –
C10A G29C U30G U56G | < 1e-05 s⁻¹ | – | – | –
C11A A12C A36U G62U | < 1e-05 s⁻¹ | – | – | –
C11G A39G A53G U55C A64U | < 1e-05 s⁻¹ | – | – | –
C8G C58A U65G C71A | < 1e-05 s⁻¹ | – | – | –
A12U A15G G41A C61A | < 1e-05 s⁻¹ | – | – | –
A12G G13U G41U U57G | < 1e-05 s⁻¹ | – | – | –
C8G C50G A52U | < 1e-05 s⁻¹ | – | – | –
C11A A33G G35U | < 1e-05 s⁻¹ | – | – | –
C8G G38A C58G C67G | 0.000538 ± 0.00013 s⁻¹ | 0.000435 ± 0.00014 s⁻¹ | 0.000186 ± 5e-05 s⁻¹ | –
A12G U30A G37U A64C | < 1e-05 s⁻¹ | < 1e-05 s⁻¹ | – | –
C10U C34A C70U | < 1e-05 s⁻¹ | < 1e-05 s⁻¹ | – | –
A12G G37A C50A | < 1e-05 s⁻¹ | – | – | < 1e-05 s⁻¹

Variant | self-cleavage kobs at 640 uM GlcN6P (glucosamine-6-phosphate [1]) | self-cleavage kobs at 2500 uM GlcN6P (glucosamine-6-phosphate [2]) | self-cleavage kobs at 160 uM GlcN6P (glucosamine-6-phosphate [3]) | self-cleavage kobs at 10000 uM GlcN6P (glucosamine-6-phosphate [4])
A12C G35A C70U | < 1e-05 s⁻¹ | < 1e-05 s⁻¹ | – | –
C11G U31G G41U U69C | < 1e-05 s⁻¹ | < 1e-05 s⁻¹ | – | –
C11G C16A C34G A42U | < 1e-05 s⁻¹ | – | < 1e-05 s⁻¹ | –
C8G G32A U46C A53U G63C | < 1e-05 s⁻¹ | < 1e-05 s⁻¹ | – | –
G9U G38U G51A G60U | < 1e-05 s⁻¹ | – | < 1e-05 s⁻¹ | –
G9U G32A | < 1e-05 s⁻¹ | – | < 1e-05 s⁻¹ | < 1e-05 s⁻¹
C8U C34G G41A | < 1e-05 s⁻¹ | – | < 1e-05 s⁻¹ | –
G9U G44C | < 1e-05 s⁻¹ | – | – | –
G9U G44A | < 1e-05 s⁻¹ | < 1e-05 s⁻¹ | < 1e-05 s⁻¹ | < 1e-05 s⁻¹
A12G G41U G51C C71A | < 1e-05 s⁻¹ | < 1e-05 s⁻¹ | < 1e-05 s⁻¹ | –
C8U G59C C67G | < 1e-05 s⁻¹ | < 1e-05 s⁻¹ | < 1e-05 s⁻¹ | –
C10A U69A | 0.00013 ± 1.9e-05 s⁻¹ | 3.89e-05 ± 1.5e-05 s⁻¹ | – | –
C10U G38U U69A | 8.22e-05 ± 2.4e-05 s⁻¹ | – | – | –
C11A G37C U65G | < 1e-05 s⁻¹ | – | – | –
C11A A15C G29A G44A | < 1e-05 s⁻¹ | < 1e-05 s⁻¹ | – | –
G9C C50U C70G | < 1e-05 s⁻¹ | – | – | –
C10U A39C A42C U69C | < 1e-05 s⁻¹ | < 1e-05 s⁻¹ | < 1e-05 s⁻¹ | –
C10U A52U C67A C68A U69G | 8.14e-05 ± 3.2e-05 s⁻¹ | – | – | –
G9C G32U U45G A64G | < 1e-05 s⁻¹ | – | – | –
C8G G32U G44C | < 1e-05 s⁻¹ | – | – | –
C11A C16A G43A | < 1e-05 s⁻¹ | < 1e-05 s⁻¹ | – | –

Variant | self-cleavage kobs at 640 uM GlcN6P (glucosamine-6-phosphate [1]) | self-cleavage kobs at 2500 uM GlcN6P (glucosamine-6-phosphate [2]) | self-cleavage kobs at 160 uM GlcN6P (glucosamine-6-phosphate [3]) | self-cleavage kobs at 10000 uM GlcN6P (glucosamine-6-phosphate [4])
C10G U31C A53G | < 1e-05 s⁻¹ | < 1e-05 s⁻¹ | < 1e-05 s⁻¹ | –
C10U G35C G60A | < 1e-05 s⁻¹ | < 1e-05 s⁻¹ | – | –
G9U G32A G62C | < 1e-05 s⁻¹ | < 1e-05 s⁻¹ | – | –
C11A G35A G63U A64C | < 1e-05 s⁻¹ | < 1e-05 s⁻¹ | – | –
A12U G62A | < 1e-05 s⁻¹ | – | < 1e-05 s⁻¹ | < 1e-05 s⁻¹
C10G C16G G44A | < 1e-05 s⁻¹ | – | – | –
A12U G29U A52U G62U | < 1e-05 s⁻¹ | < 1e-05 s⁻¹ | – | –
C8G U57C G62U | < 1e-05 s⁻¹ | < 1e-05 s⁻¹ | < 1e-05 s⁻¹ | –
C11G G35C A48U U65G | < 1e-05 s⁻¹ | – | – | –
C8G G32U C58U | < 1e-05 s⁻¹ | – | < 1e-05 s⁻¹ | –
A12G G35U G37A | < 1e-05 s⁻¹ | – | – | –
C10G C11A A14G G29C G37U | < 1e-05 s⁻¹ | – | < 1e-05 s⁻¹ | –
A12C U45G U49G G66C | < 1e-05 s⁻¹ | – | < 1e-05 s⁻¹ | –
C11A U30A U45G | < 1e-05 s⁻¹ | – | – | –
C10A G32C U54C A64G | < 1e-05 s⁻¹ | < 1e-05 s⁻¹ | – | –
C11G U31C U54A | < 1e-05 s⁻¹ | < 1e-05 s⁻¹ | – | –
C10U G59A | < 1e-05 s⁻¹ | < 1e-05 s⁻¹ | – | < 1e-05 s⁻¹
C8A G13U | < 1e-05 s⁻¹ | – | < 1e-05 s⁻¹ | –
C8U A42C U65G | < 1e-05 s⁻¹ | – | – | < 1e-05 s⁻¹
C8G A14U G66U | < 1e-05 s⁻¹ | – | < 1e-05 s⁻¹ | –
C10A U45C | < 1e-05 s⁻¹ | – | < 1e-05 s⁻¹ | –
